In US20240166765A1, “INFLAMMATORY DISEASE TREATMENT USING ANTI-TISSUE FACTOR ANTIBODIES” (Iconic Therapeutics LLC, priority 2020, published 2024):

Tests used:
cynomolgus TF = experiment: ForteBio (Octet) binding affinity, cynomolgus TF; parameters: species or system cynomolgus monkey
[1] = system: TF-positive HPAF-II cells; experiment: Cytotoxicity assay of ADCs, HPAF-II cells; format: cell-based, human; details: Primary ADC, Continuous treatment, FIG. 22E
human TF = biological target: T1, human TF (Homo sapiens, UniProt P13726); experiment: ForteBio (Octet) binding affinity, human TF
T1 construct: made in house; host or cells: Expi293

TF-positive A431 cells [2] = experiment: Cell viability / internalization assay with anti-human Fc MMAF secondary; format: cell-based; details: Secondary ADC (antibody with anti-human Fc Fab:MMAF), Continuous treatment, FIG. 18B
Expi293-derived TF-His = biological target: T2, Expi293-derived TF-His (Homo sapiens, UniProt P13726); experiment: Protein ELISA, Expi293-derived TF; format: binding; details: Table 43
T2 construct: Plates coated with Expi293- or E. coli-derived TF-His; made in house; host or cells: Expi293

TF:FVIIa = biological target: T3, TF:FVIIa (Homo sapiens, UniProt P13726); experiment: FXa conversion assay on MDA-MB-231 cells; format: cell-based; details: as summarised in Example 23
T3 construct: host or cells: MDA-MB-231
Procedure: (§1) To evaluate the ability of TF:FVIIa to convert FX into FXa in the presence of human antibodies against TF, 5×10^4 MDA-MB-231 cells (ATCC, Manassas, VA, USA) were plated into tissue culture-treated black 96-well plates (Greiner Bio-One, Monroe, NC, USA). […] Upon reconstitution of the binary TF:FVIIa complex with a final concentration of 20 nM of FVIIa, cells were incubated for 5 min at 37° C.
as §1, with “Briefly,” for “To evaluate the ability of TF:FVIIa to convert FX into FXa in the presence of human antibodies against TF,”, “USA) and cultured overnight.” for “USA).”

[3] = system: TF-positive Macaca mulatta RF/6A cells; experiment: Cell-based binding assay, RF/6A cells
MDA-MB-231 cells = experiment: Cytotoxicity assay of ADCs, MDA-MB-231 cells; format: cell-based, human; details: Primary ADC, Continuous treatment, FIG. 22D
TF-positive A431 cells [4] = experiment: Cytotoxicity assay of ADCs, A431 cells; format: cell-based, human; details: Primary ADC
Procedure: To evaluate cytotoxicity of ADCs, TF-positive A431 and HPAF-II cells were plated in 384-well plates (Greiner Bio-One, Monroe, NC, USA) at 4×10^3 cells per well in 40 μL of media. Anti-TF antibodies conjugated to MC-vc-PAB-MMAE were serially diluted starting at 5 nM. Plates were incubated for 3 to 4 days, followed by lysis in CellTiter-Glo (CTG) assay reagent (Promega, Madison, WI, USA). CTG luminescence was measured on an Envision plate reader and the mean and standard deviation of 4 replicates were graphed in Prism.
To evaluate ADC cytotoxicity, A431 cells were plated in 384-well plates (Greiner Bio-One). Anti-TF antibodies conjugated to MC-vc-PAB-MMAE were serially diluted as shown. The TF-specific ADCs were added to A431 cells, with either a 72 h incubation or a 4 h incubation followed by removal of excess ADC and culture for another 68 h. A431 cells were lysed in CTG assay reagent after treatment. CTG luminescence was measured and the mean and standard deviation of 4 replicates graphed in Prism.

E. coli-derived TF-His = biological target: T4, E. coli-derived TF-His (Homo sapiens, UniProt P13726); experiment: Protein ELISA, E. coli-derived TF; format: binding; details: Table 43
T4 construct: made in house; host or cells: E. coli

human TF (TF-His) = biological target: T5, human TF (TF-His) (Homo sapiens, UniProt P13726); experiment: Biacore binding affinity, human TF
T5 construct: human, cynomolgus, or mouse TF ECD-His6 (TF-His); made in house; host or cells: Expi293

cynomolgus TF (TF-His) = experiment: Biacore binding affinity, cynomolgus TF; parameters: species or system cynomolgus monkey
mouse TF = biological target: T6, mouse TF (Mus musculus, UniProt P20352); experiment: ForteBio (Octet) binding affinity, mouse TF; details: KD for mouse antigen no greater than 20 times KD for human antigen
T6 construct: made in house; host or cells: Expi293

pig TF (TF-His) = experiment: Biacore binding affinity, pig TF; details: Example 22
[5] = 4 hr, followed by washout, FIG. 20B
[6] = 4 hr, followed by washout, FIG. 21A

T3 sequence (P13726 33-295): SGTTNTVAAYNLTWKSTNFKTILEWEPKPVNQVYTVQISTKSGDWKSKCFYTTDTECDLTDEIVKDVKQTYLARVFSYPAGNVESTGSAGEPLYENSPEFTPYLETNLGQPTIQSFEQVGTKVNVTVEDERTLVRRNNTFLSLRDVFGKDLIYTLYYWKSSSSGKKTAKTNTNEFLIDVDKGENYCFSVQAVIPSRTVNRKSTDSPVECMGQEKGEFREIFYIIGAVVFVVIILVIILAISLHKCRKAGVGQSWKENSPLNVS
T6 sequence (P20352 with tags, fused parts or gaps limits assumed): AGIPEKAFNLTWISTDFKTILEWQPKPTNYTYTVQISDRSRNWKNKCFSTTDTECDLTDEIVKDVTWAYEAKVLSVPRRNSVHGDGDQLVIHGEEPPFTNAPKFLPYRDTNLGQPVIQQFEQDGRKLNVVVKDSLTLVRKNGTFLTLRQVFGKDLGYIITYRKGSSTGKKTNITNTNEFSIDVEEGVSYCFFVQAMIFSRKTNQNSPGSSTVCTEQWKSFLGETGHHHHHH
T4 sequence (P13726 33-251 limits assumed): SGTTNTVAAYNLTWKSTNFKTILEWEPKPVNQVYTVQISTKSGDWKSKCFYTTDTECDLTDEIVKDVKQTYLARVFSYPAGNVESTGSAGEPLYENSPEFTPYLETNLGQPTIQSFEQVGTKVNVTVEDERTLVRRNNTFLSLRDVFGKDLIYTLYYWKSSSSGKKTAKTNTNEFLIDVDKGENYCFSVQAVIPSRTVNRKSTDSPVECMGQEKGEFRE
T1 sequence (P13726 with tags, fused parts or gaps limits assumed): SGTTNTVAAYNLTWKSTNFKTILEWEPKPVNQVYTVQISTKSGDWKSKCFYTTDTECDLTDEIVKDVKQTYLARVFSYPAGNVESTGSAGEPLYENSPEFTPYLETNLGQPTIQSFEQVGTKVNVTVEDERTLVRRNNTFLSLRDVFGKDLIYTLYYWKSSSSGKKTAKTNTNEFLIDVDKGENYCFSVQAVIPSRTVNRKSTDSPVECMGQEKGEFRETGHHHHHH
T5 sequence (P13726 with tags, fused parts or gaps): as the sequence (P13726 with tags, fused parts or gaps limits assumed) above
T2 sequence (P13726 with tags, fused parts or gaps): as the sequence (P13726 with tags, fused parts or gaps limits assumed) above

B1: 43D7 (antibody)
heavy: QVQLQQWGAGLLKPSETLSLTCAVYGGSLSGYYWSWIRQPPGKGLEWIGEIGASGSTRYNPSLKSRVTISVDTSKNQFSLKLSSVTAADTAVYYCARDTPYYYEGGYYYYMDVWGKGTTVTVSSASTKGPSVFPLAPSSKSTSGGTAALGCLVKDYFPEPVTVSWNSGALTSGVHTFPAVLQSSGLYSLSSVVTVPSSSLGTQTYICNVNHKPSNTKVDKRV[sequence of human IgG1 Fc omitted]
light: EIVLTQSPGTLSLSPGERATLSCRASDSVDSSYLAWYQQKPGQAPRLLIYGAFSRANGIPDRFSGSGSGTDFTLTISRLEPEDFAVYYCQQAGVVPYTFGGGTKVEIKRTVAAPSVFIFPPSDEQLKSGTASVVCLLNNFYPREAKVQWKVDNALQSGNSQESVTEQDSKDSTYSLSSTLTLSKADYEKHKVYACEVTHQGLSSPVTKSFNRGEC
- Kd (cynomolgus TF): 1.11 nM
- IC50 [1]: 0.05 nM
- Kd (human TF): 1.02 nM
- IC50 (TF-positive A431 cells [2]): 0.1 nM
- EC50 (Expi293-derived TF-His): 0.71 nM
- effect on FX conversion (TF:FVIIa): does not substantially affect FX conversion
- EC50 [3]: 0.41 nM
- IC50 (MDA-MB-231 cells): 0.14 nM
- IC50 (TF-positive A431 cells [4]; [5]): 0.28 nM
- IC50 (TF-positive A431 cells [4]; [6]): 0.14 nM
- IC50 (TF-positive A431 cells [4]; Continuous treatment, FIG. 20A): 0.06 nM
- EC50 (E. coli-derived TF-His): 0.43 nM
- Kd (human TF (TF-His)): 0.06 nM
- Kd (cynomolgus TF (TF-His)): 0.12 nM

B2: 25G1 (antibody)
heavy: QVQLVQSGAEVKKPGASVKVSCKASGYTFRSYGISWVRQAPGQGLEWMGWVAPYSGNTNYAQKLQGRVTMTTDTSTSTAYMELRSLRSDDTAVYYCARDAGTYSPYGYGMDVWGQGTTVTVSSASTKGPSVFPLAPSSKSTSGGTAALGCLVKDYFPEPVTVSWNSGALTSGVHTFPAVLQSSGLYSLSSVVTVPSSSLGTQTYICNVNHKPSNTKVDKRV[sequence of human IgG1 Fc omitted]
light: DIQMTQSPSTLSASVGDRVTITCRASHSIDSWLAWYQQKPGKAPKLLIYKASYLESGVPSRFSGSGSGTEFTLTISSLQPDDFATYYCQLFQSLPPFTFGGGTKVEIKRTVAAPSVFIFPPSDEQLKSGTASVVCLLNNFYPREAKVQWKVDNALQSGNSQESVTEQDSKDSTYSLSSTLTLSKADYEKHKVYACEVTHQGLSSPVTKSFNRGEC
- IC50 [1]: 0.04 nM
- IC50 (TF-positive A431 cells [2]): 0.08 nM
- effect on FX conversion (TF:FVIIa): does not substantially affect FX conversion
- IC50 (MDA-MB-231 cells): 0.09 nM
- IC50 (TF-positive A431 cells [4]; [5]): 0.19 nM
- IC50 (TF-positive A431 cells [4]; [6]): 0.1 nM
- IC50 (TF-positive A431 cells [4]; Continuous treatment, FIG. 20A): 0.06 nM
- cross-reactive with mTF (mouse TF): cross-reactive

B3: 25G9: human anti-TF antibody, group 25; sequences in Tables 13 and 22 (antibody)
heavy: QVQLVQSGAEVKKPGASVKVSCKASGYTFRSYGISWVRQAPGQGLEWMGWVAPYSGNTNYAQKLQGRVTMTTDTSTSTAYMELRSLRSDDTAVYYCARDAGTYSPYGYGMDVWGQGTTVTVSSASTKGPSVFPLAPSSKSTSGGTAALGCLVKDYFPEPVTVSWNSGALTSGVHTFPAVLQSSGLYSLSSVVTVPSSSLGTQTYICNVNHKPSNTKVDKRV[sequence of human IgG1 Fc omitted]
light: DIQMTQSPSTLSASVGDRVTITCQASQSIDSWLAWYQQKPGKAPKLLIYSASYLESGVPSRFSGSGSGTEFTLTISSLQPDDFATYYCQRFQSLPPFTFGGGTKVEIKRTVAAPSVFIFPPSDEQLKSGTASVVCLLNNFYPREAKVQWKVDNALQSGNSQESVTEQDSKDSTYSLSSTLTLSKADYEKHKVYACEVTHQGLSSPVTKSFNRGEC
- binding activity and cross-reactivity to pig TF (pig TF (TF-His)): exhibit binding activity and cross-reactivity
- cross-reactive with mTF (mouse TF): cross-reactive

B4: 25A3 (antibody)
heavy: QVQLVQSGAEVKKPGASVKVSCKASGYTFDVYGISWVRQAPGQGLEWMGWIAPYSGNTNYAQKLQGRVTMTTDTSTSTAYMELRSLRSDDTAVYYCARDAGTYSPFGYGMDVWGQGTTVTVSSASTKGPSVFPLAPSSKSTSGGTAALGCLVKDYFPEPVTVSWNSGALTSGVHTFPAVLQSSGLYSLSSVVTVPSSSLGTQTYICNVNHKPSNTKVDKRV[sequence of human IgG1 Fc omitted]
light: DIQMTQSPSTLSASVGDRVTITCQASQSINNWLAWYQQKPGKAPKLLIYKAYNLESGVPSRFSGSGSGTEFTLTISSLQPDDFATYYCQLFQSLPPFTFGGGTKVEIKRTVAAPSVFIFPPSDEQLKSGTASVVCLLNNFYPREAKVQWKVDNALQSGNSQESVTEQDSKDSTYSLSSTLTLSKADYEKHKVYACEVTHQGLSSPVTKSFNRGEC
- IC50 [1]: 0.05 nM
- IC50 (TF-positive A431 cells [2]): 0.09 nM
- effect on FX conversion (TF:FVIIa): does not substantially affect FX conversion
- IC50 (MDA-MB-231 cells): 0.11 nM
- IC50 (TF-positive A431 cells [4]; [5]): 0.19 nM
- IC50 (TF-positive A431 cells [4]; [6]): 0.12 nM
- IC50 (TF-positive A431 cells [4]; Continuous treatment, FIG. 20A): 0.07 nM
